Experimental data from PubChem BioAssay (NCATS).
Inconclusive results, whose numbers are uncertain, are shown with a selection of clear calls. Potencies beside an inconclusive call are fits to weak or partial responses and may not hold up. Active and inactive are the calls of the source. Calls follow the shape of the dose curve; as a rule, active = well fitted inhibition curve with a large enough effect; inconclusive = small, poorly fitted or top-dose-only effect; inactive = flat fitted curve, though single readings scatter.

Each molecule was assayed against Lysine-specific demethylase 5B (Homo sapiens) (UniProt Q9UGL1) (assay: Optimization screen for KDM5B Histone Demethylases FDH coupled qHTS against the LOPAC library (AID 1347166; as to activity, negative = inhibition: 0% is about no effect)). Conditions: KDM5B demethylation, FDH-coupled NADH fluorescence (FDH is formaldehyde dehydrogenase); activity, negative = inhibition: at 57.5 µM (top of the series).
How it was run: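 KDM5BDeltaAP (200nM final) in 50mM HEPES pH 7.5, 0.01% Tween-20 was preincubated with compound for 10 min at room temperature. A substrate mix of 12.5uM H3K4Me3, 25uM a-ketoglutarate, ascorbate, Fe2+, NAD+ and formaldehyde dehydrogenase was then added. NADH fluorescence (340/450 nm) was read initially and after 30 min.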
Potency is read from the fitted curve at half-maximal effect; tags tell the direction and shape of the fitted curve.

Sequence of UniProt Q9UGL1 (Q9UGL1 whole entry, looked up): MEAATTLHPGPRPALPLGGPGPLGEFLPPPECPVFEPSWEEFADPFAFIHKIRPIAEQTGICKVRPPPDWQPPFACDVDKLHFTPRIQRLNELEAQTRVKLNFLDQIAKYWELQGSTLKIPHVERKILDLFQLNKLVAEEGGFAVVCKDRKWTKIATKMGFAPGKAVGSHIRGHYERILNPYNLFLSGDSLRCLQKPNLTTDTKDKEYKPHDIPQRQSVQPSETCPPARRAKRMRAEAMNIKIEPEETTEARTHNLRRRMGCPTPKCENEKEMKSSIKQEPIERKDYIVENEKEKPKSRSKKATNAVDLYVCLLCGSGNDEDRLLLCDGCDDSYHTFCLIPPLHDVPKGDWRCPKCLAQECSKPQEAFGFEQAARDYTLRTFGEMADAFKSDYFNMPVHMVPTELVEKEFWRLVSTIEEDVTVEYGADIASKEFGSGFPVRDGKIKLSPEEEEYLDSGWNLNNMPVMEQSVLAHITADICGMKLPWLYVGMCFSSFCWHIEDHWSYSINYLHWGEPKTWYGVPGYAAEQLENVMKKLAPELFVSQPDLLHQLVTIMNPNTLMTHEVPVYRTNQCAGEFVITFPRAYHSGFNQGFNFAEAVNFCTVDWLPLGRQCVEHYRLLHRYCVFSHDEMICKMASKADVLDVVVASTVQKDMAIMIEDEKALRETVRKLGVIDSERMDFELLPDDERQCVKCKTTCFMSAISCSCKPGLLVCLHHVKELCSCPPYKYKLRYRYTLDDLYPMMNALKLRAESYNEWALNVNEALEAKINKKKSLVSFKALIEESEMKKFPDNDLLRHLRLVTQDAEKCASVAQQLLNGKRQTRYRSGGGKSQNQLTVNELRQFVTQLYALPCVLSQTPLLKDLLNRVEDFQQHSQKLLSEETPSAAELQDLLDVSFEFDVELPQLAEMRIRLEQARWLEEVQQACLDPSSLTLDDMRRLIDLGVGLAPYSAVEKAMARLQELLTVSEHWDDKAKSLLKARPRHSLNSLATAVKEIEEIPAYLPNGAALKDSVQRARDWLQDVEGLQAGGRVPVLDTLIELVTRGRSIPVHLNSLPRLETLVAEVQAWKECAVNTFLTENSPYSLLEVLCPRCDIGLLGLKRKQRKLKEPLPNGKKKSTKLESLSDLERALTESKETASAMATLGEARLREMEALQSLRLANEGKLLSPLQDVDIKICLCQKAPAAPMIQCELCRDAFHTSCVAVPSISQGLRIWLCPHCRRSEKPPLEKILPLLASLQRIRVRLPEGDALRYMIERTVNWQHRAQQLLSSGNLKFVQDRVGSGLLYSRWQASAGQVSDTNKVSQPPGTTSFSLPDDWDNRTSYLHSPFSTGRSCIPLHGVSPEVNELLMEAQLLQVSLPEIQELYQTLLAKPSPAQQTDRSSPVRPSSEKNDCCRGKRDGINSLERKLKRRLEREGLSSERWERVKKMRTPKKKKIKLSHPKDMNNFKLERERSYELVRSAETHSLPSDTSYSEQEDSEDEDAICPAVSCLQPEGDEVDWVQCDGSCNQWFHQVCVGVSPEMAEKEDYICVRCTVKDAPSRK

Q: Which Potency does the source give for `NNCCc1ccccc1` here?
A: The Potency was inconclusive: 20 µM [inhibitor, partial curve, poor fit].

Q: `CNCCCC1c2ccccc2C=Cc2ccccc21` was tested. Which Potency did it give?
A: Its Potency is inconclusive: 28.2 µM [inhibitor, partial curve, poor fit].

Q: With `NC(=O)c1cccc(N)c1` as the molecule, how does the Potency read?
A: The Potency was inconclusive: 28.2 µM [inhibitor, partial curve, poor fit].

Q: `NC[C@H](O)c1ccc(O)c(O)c1` was tested. Which Potency did it give?
A: The Potency was inconclusive: 15.8 µM [inhibitor, partial curve, poor fit].

Q: Which Potency does the source give for `O=C(c1ccc(OCCN2CCCCC2)cc1)c1c(-c2ccc(O)cc2)sc2cc(O)ccc12` here?
A: The Potency was inconclusive: 31.6 µM [inhibitor, partial curve, poor fit].

Q: For `OCc1ccc(-c2nn(Cc3ccccc3)c3ccccc23)o1`, which Potency is on record?
A: The Potency was inconclusive: 22.4 µM [inhibitor, partial curve, poor fit].

Q: With `CC(C)C[C@H]1C(=O)N2CCC[C@H]2[C@]2(O)O[C@](NC(=O)[C@@H]3C=C4c5cccc6[nH]c(Br)c(c56)C[C@H]4N(C)C3)(C(C)C)C(=O)N12` as the molecule, how does the Potency read?
A: Its Potency is inconclusive: 20 µM [inhibitor, partial curve, poor fit].

Q: With `CN(C(=O)CCCOc1ccc2[nH]c(=O)ccc2c1)C1CCCCC1` as the molecule, how does the Potency read?
A: The Potency was inconclusive: 20 µM [inhibitor, partial curve, poor fit].

Q: How did the activity, negative = inhibition turn out when `Nc1nc(N)c2nc(CNc3ccc(C(=O)NC(CCC(=O)O)C(=O)O)cc3)cnc2n1` (stereo not given) was run?
A: The activity, negative = inhibition was active: -994%.

Q: Which Potency does the source give for `C[n+]1cc2c3c(ccc2c2ccc4cc5c(cc4c21)OCO5)OCO3` here?
A: The Potency was inconclusive: 20 µM [inhibitor, partial curve, poor fit].
